Our source for the enrichment ratio values is a collection of fitness landscapes (doi:10.1126/science.1257360).

B1: PhoQ; a variant is named by its letters at X, in order, P23837 (parent)
chain: MKKLLRLFFPLSLRVRFLLATAAVVLVLSLAYGMVALIGYSVSFDKTTFRLLRGESNLFYTLAKWENNKLHVELPENIDKQSPTMTLIYDENGQLLWAQRDVPWLMKMIQPDWLKSNGFHEIEADVNDTSLLLSGDHSIQQQLQEVREDDDDAEMTHSVAVNVYPATSRMPKLTIVVVDTIPVELKSSYMVWSWFIYVLSANLLLVIPLLWVAAWWSLRPIEALAKEVRELEEHNRELLNPATTRELTSLVRNLNRLLKSERERYDKYRTTLTDLTHSLKTPLXXLQXXLRSLRSEKMSVSDAEPVMLEQISRISQQIGYYLHRASMRGGTLLSRELHPVAPLLDNLTSALNKVYQRKGVNISLDISPEISFVGEQNDFVEVMGNVLDNACKYCLEFVEISARQTDEHLYIVVEDDGPGIPLSKREVIFDRGQRVDTLRPGQGVGLAVAREITEQYEGKIVAGESMLGGARMEVIFGRQHSAPKDE

The list shows a part of the results.

In the experiment the parent is B1. Kind of experiment: enrichment ratio after two sorts for PhoP signalling (ratio (wild type AVST 3.29)); higher = more functional. Particulars: with PhoP (E. coli).
Turning to SHLY, the enrichment ratio worked out at 5.46.
Under VKHG stands no more than 0.25; under YFFE, no more than 0.25.
As to WEQT, the enrichment ratio is no more than 0.25.
Regarding TPTI, the enrichment ratio is no more than 0.25.
Take SEES: the enrichment ratio stood at 6.49.
Under AHLR stands no more than 0.25; under YGQI, no more than 0.25.
To LVCI belongs no more than 0.25; to QKIV, no more than 0.25.
To DLGV belongs no more than 0.25.
Take RQDA: the enrichment ratio is no more than 0.25.
On to GLFY, for which the enrichment ratio was no more than 0.25.
To HDHC belongs no more than 0.25; to IAKM, no more than 0.25; to LAAK, no more than 0.25.
Under YHRL stands no more than 0.25; under HVKY, no more than 0.25; under DEYT, no more than 0.25.
Regarding PVVF, the enrichment ratio was no more than 0.25.
With TENT, the enrichment ratio came to 3.14.
Under GTFL stands no more than 0.25; under LSRF, no more than 0.25.
To TTVG belongs 3.36; to TEEY, 3.77; to QEWF, no more than 0.25.
For the variant RITT, the enrichment ratio was no more than 0.25.
As for YTYW, the enrichment ratio was no more than 0.25.
Under LPIM stands no more than 0.25.
To SNNA belongs 6.23.
To TMNI belongs 3.75.
Take MILE: the enrichment ratio was no more than 0.25.
As to QYFR, the enrichment ratio is no more than 0.25.
Under YHNP stands no more than 0.25.
To WFRS belongs no more than 0.25; to ADRP, no more than 0.25; to EIWV, no more than 0.25.
To DLLE belongs no more than 0.25; to PQSQ, no more than 0.25; to GQLI, 8.6.
Regarding NMTG, the enrichment ratio is no more than 0.25.
To KEHY belongs no more than 0.25; to DTQI, no more than 0.25.
Regarding VKNP, the enrichment ratio was no more than 0.25.
To TTRE belongs no more than 0.25; to KIVP, no more than 0.25.
Under IFAN stands no more than 0.25; under ETGY, no more than 0.25.
Turning to NLSE, the enrichment ratio was no more than 0.25.
As for TSGA, the enrichment ratio was found to be 10.
Under PCCR stands no more than 0.25.
Take SHKY: the enrichment ratio was no more than 0.25.
In the case of VNLT, the enrichment ratio is 3.84.
As to PGPP, the enrichment ratio is no more than 0.25.
To FNNG belongs no more than 0.25; to IYCI, no more than 0.25; to QWAF, no more than 0.25.
To LTNN belongs no more than 0.25; to AGQK, no more than 0.25.
For IANL, the enrichment ratio was no more than 0.25.
As to SPYL, the enrichment ratio was no more than 0.25.
To QDHL belongs no more than 0.25.
Take IFCP: the enrichment ratio was no more than 0.25.
Under TSPR stands no more than 0.25; under ERPC, no more than 0.25; under QRYA, no more than 0.25.
As to SCKY, the enrichment ratio was no more than 0.25.
To AFMN belongs no more than 0.25.
Turning to HQSV, the enrichment ratio is no more than 0.25.
In the case of TIDK, the enrichment ratio was no more than 0.25.
Under IATA stands no more than 0.25; under KPTC, no more than 0.25; under HLDN, no more than 0.25.
To VNHE belongs no more than 0.25; to YFCD, no more than 0.25.
To LGVV belongs no more than 0.25; to GFEP, no more than 0.25; to PMPN, no more than 0.25.
In the case of TINE, the enrichment ratio was no more than 0.25.
With GFHD, the enrichment ratio is no more than 0.25.
Turning to LIYY, the enrichment ratio is 0.905.
As for IHMA, the enrichment ratio was no more than 0.25.
Turning to RYVK, the enrichment ratio was no more than 0.25.
For the variant DICC, the enrichment ratio is no more than 0.25.
To QVSR belongs no more than 0.25; to FFFE, no more than 0.25; to YHAP, no more than 0.25.
Under LIKF stands no more than 0.25.
As for EKLS, the enrichment ratio is no more than 0.25.
In the case of GCAN, the enrichment ratio is no more than 0.25.
To NYMI belongs no more than 0.25; to IITV, no more than 0.25.
Under NRKG stands no more than 0.25; under YDRQ, no more than 0.25.
Under KTRY stands no more than 0.25; under LNAN, no more than 0.25.
Regarding IEFR, the enrichment ratio was no more than 0.25.
To VWGT belongs no more than 0.25; to DYRG, no more than 0.25; to FKYY, no more than 0.25.
As for DDGD, the enrichment ratio was no more than 0.25.
Turning to FQSF, the enrichment ratio turned out to be 0.597.
To PRME belongs no more than 0.25; to CNIT, no more than 0.25.
For the variant ASDH, the enrichment ratio is no more than 0.25.
Under FHFL stands no more than 0.25; under FESV, no more than 0.25; under KRGA, no more than 0.25.
Under GHQY stands no more than 0.25; under TITQ, 12.5.
With NYRK, the enrichment ratio is no more than 0.25.
Under HYCQ stands no more than 0.25; under LGMK, no more than 0.25.
To NGDF belongs no more than 0.25.
For PAIQ, the enrichment ratio is no more than 0.25.
On to IGAV, for which the enrichment ratio is no more than 0.25.
Under LADT stands no more than 0.25; under GNNK, no more than 0.25.
To EPPC belongs no more than 0.25; to KGYR, no more than 0.25.
Under WSFF stands no more than 0.25; under YMPN, no more than 0.25.
On to PFSN, for which the enrichment ratio is no more than 0.25.
Under LLNR stands no more than 0.25.
Under LRVT stands no more than 0.25; under LYHK, no more than 0.25.
With HVMV, the enrichment ratio is no more than 0.25.
Under VFFY stands no more than 0.25; under LKWF, no more than 0.25.
Under GYRV stands no more than 0.25.
On to DPAR, for which the enrichment ratio was no more than 0.25.
Under PCAN stands no more than 0.25; under ASHT, no more than 0.25.
To MLPA belongs no more than 0.25; to MCDE, no more than 0.25.
AMSL: the enrichment ratio was 7.49.
To HSIH belongs no more than 0.25; to SPGT, no more than 0.25; to PFCY, no more than 0.25.
On to FLGI, for which the enrichment ratio is no more than 0.25.
In the case of RAMK, the enrichment ratio is no more than 0.25.
Under EKMY stands no more than 0.25; under MDFN, no more than 0.25; under NWMT, no more than 0.25.
Regarding VHCD, the enrichment ratio was no more than 0.25.
To DLDH belongs no more than 0.25; to WCWT, no more than 0.25.
Under EGIF stands no more than 0.25; under ETST, no more than 0.25; under YWGC, no more than 0.25.
Under RTFI stands no more than 0.25; under TPGM, no more than 0.25.
As to PTYC, the enrichment ratio was no more than 0.25.
Under FFMG stands no more than 0.25.
To YTKT belongs no more than 0.25; to TIMY, no more than 0.25.
To RGHE belongs no more than 0.25.
With SVKS, the enrichment ratio was no more than 0.25.
Under GPFM stands no more than 0.25.
Under KTFC stands no more than 0.25.
Under WEWH stands no more than 0.25.
For DYWC, the enrichment ratio is no more than 0.25.
For the variant TYCK, the enrichment ratio was no more than 0.25.
Turning to AVTI, the enrichment ratio amounted to 10.4.
In the case of DQMD, the enrichment ratio is no more than 0.25.
Under ERLF stands no more than 0.25; under KFPP, no more than 0.25.
Consider QKWG, for which the enrichment ratio is no more than 0.25.
In the case of KMHT, the enrichment ratio is no more than 0.25.
Under VYTD stands no more than 0.25; under HQYR, no more than 0.25.
With SRWM, the enrichment ratio is no more than 0.25.
Under IWYS stands no more than 0.25.
Turning to TPTP, the enrichment ratio is no more than 0.25.
For YTPA, the enrichment ratio was no more than 0.25.
For the variant VAAT, the enrichment ratio is no more than 0.25.
On to AHYD, for which the enrichment ratio is no more than 0.25.
As for NAAA, the enrichment ratio was no more than 0.25.
Turning to INAK, the enrichment ratio was no more than 0.25.
To LFNT belongs no more than 0.25; to DMWY, no more than 0.25.
To RRSE belongs no more than 0.25; to DGWF, no more than 0.25; to DMAH, no more than 0.25.
To ISNT belongs no more than 0.25; to NLHE, no more than 0.25; to THEP, no more than 0.25.
Regarding LYWQ, the enrichment ratio was no more than 0.25.
Turning to PIHL, the enrichment ratio was no more than 0.25.
Under KVVN stands no more than 0.25; under GQNI, no more than 0.25; under DANQ, no more than 0.25.
Under RMYM stands no more than 0.25; under PGLH, no more than 0.25.
Under IWFF stands no more than 0.25.
